In the supplement of paper PMC10338343:
± gives the standard deviation. The entries are a selection whose mix differs from that of the whole data set.

Tested on: MIWI (PIWIL1) piRISC loaded with piRNA #1 (30 nt)
Assay: pre-steady-state target cleavage rate (min^-1); MIWI and MILI are mouse PIWI proteins and EfPiwi is from a freshwater sponge; tags in brackets are library labels; higher = faster piRNA-guided slicing of the target
Details: guide: piRNA #1 5'p-UGAGGUAGUAGGUUGUAUAGUAUCCAGAGG; auxiliary factor: 500 nM mouse GTSF1
Procedure, shortened: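 Cleave-'n-Seq reactions paired 0.1 nM transcribed, DNA-blocked target RNA library with 1 nM active affinity-purified piRISC holding one synthetic guide, plus or minus 500 nM GTSF1 partner protein, in HEPES–potassium acetate buffer at 33 °C for 0–8 or 0–960 min. After sequencing of uncleaved targets and normalisation to depth and weakly complementary targets, the pre-steady-state cleavage rate was taken from a burst-and-steady-state fit. Three trials were pooled, and k3 was capped at 0.0001 min^-1.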

| Sequence | pre-steady-state target cleavage rate |
| --- | --- |
| GGACUGGAUACUAUGACAACCUACUACCUCA | 1.6 ± 0.14 |
| GGAGACGAUACUAUACAACCUACUAGCUGA | 0.166 ± 0.058 |
| GCUCUGCUUACUAUACAACCUACUACCUCA | 1.96 ± 0.12 |
| GCUCAUGGAUACUAUACAACCUACUACCUCA | 1.98 ± 0.1 |
| GGAGACCUUACUAUACAACCUACUUACCUCA | 1.36 ± 0.11 |
| GCUCUGGAUACUAAACAACCUACUACCUCA | 1.69 ± 0.096 |
| GGACUGGAUAGUAAACAACCUACUACCUCA | 0.427 ± 0.054 |
| CCUCUGGAUACUAUUCUACCUACUACCUCA | 1.23 ± 0.095 |
| GGAGAGGAUAGUAUACAACCUACUAGCUCA | 0.0578 ± 0.013 |
| GGACUGGAUACUAUUCAACCUACUAGCUCA | 0.029 ± 0.0064 |
| GGAGUGCAUACUAUACAACCUACUACCACA | 0.667 ± 0.05 |
| GGUCUGGUUACUAUACAAGCUACUACCUCA | 1.14 ± 0.06 |
| GGACUGGAUACAAUACAACCUACUACCACA | 0.634 ± 0.056 |
| GCUCUGGAUAGCUAUACAACCUACUACCUCA | 0.739 ± 0.042 |
| GGAGACCUUACUAUACUAACCUACUACCUCA | < 0.0001 |
| GGAGACCUAUGUAUACAAGCUUCUACCUCA | 0.00411 ± 0.0032 |
| GGAGACCAUACUGAUACAACCUACUACCUCA | 0.785 ± 0.064 |
| GGAGACCUAACUAUUGUACCUACUACCUCA | < 0.0001 |
| GGAGAGGAAACUAUACAACCUACUACCACA | 0.981 ± 0.095 |
| GGAGAGGAUACUAAACUACCUACUACCUCA | 0.824 ± 0.059 |

| Sequence | pre-steady-state target cleavage rate |
| --- | --- |
| CCUCUGGAUACUAGACAACCUACUACCUCA | 1.72 ± 0.098 |
| GGAGUGGAUACAAUUCAACCUACUACCUCA | 1.36 ± 0.1 |
| CCUCUGGUUACUAUACUACCUACUACCUCA | 1.58 ± 0.097 |
| GGAGACCAUACUAUACUACCUACUACCACA | 1.05 ± 0.096 |
| GGAGUGGAUACUAUACAACCUUCAACCUCA | 0.123 ± 0.016 |
| GCUCUGGAUACAAUACAACCUACUACCACA | 1.43 ± 0.088 |
| GGAGACCAUUCUAUACAACCUUCUACCUCA | 0.236 ± 0.019 |
| GGAGACCAUACUAUACAACCUACUUGCUCA | 0.465 ± 0.048 |
| GGAGACCUAACUAAACAACCUACUACCUCA | 0.242 ± 0.042 |
| CCUCUGGAAACUAUACAACCUUCUACCUCA | 0.773 ± 0.053 |
| GGACUGGAUACUAAACUACCUACUACCUCA | 0.996 ± 0.11 |
| GGAGACCUAUCUAUAGAACCUACUUCCUCA | 0.0185 ± 0.0046 |
| GGUCUGGAUACUAUACAACCUGCUACCUCA | 0.858 ± 0.052 |
| GGAGACCUAUGAUAUGUUGCUACUACCUA | < 0.0001 |
| GGAGUGCUAACUAUACAACCUACUACCUCA | 1.22 ± 0.082 |
| CCUCUGGAGACUAUACAACCUACUACCUCA | 1.88 ± 0.16 |
| GGAGACCUUACAAUAGAACCUACUACCUCA | 0.167 ± 0.022 |
| GGUCUGGAUACUAUACAACCUACUUCCUCA | 0.0238 ± 0.009 |
| CCUCUGGAUACUAUACAACCUACUGCCUCA | 1.61 ± 0.1 |
| GCUCUGGAUACUUUACAACCUACAACCUCA | 0.804 ± 0.05 |
